Among all 50,000 compounds or so, about 800 (1.6%) showed an effect of 50% or more. The list shows a part of the results.

The target of the test is Bcl-2-like protein 10 (Homo sapiens) (UniProt Q9HD36). The experiment in a line: TR3 peptide-Bcl-B binding displacers, biochemical primary FP assay, phenotype converters (AID 1240).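 Further: 0% = Bcl-B with tracer peptide and DMSO and 100% = tracer peptide lacking Bcl-B.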 To be noted: GST-Bcl-B / FITC-TR3 peptide fluorescence polarization; stronger effect = higher value; compound at 3.75 mg/L. (In general: Polarisation of emitted light reports the rotation of a fluorescent probe.)
Sequence of UniProt Q9HD36 (Q9HD36 whole entry, looked up): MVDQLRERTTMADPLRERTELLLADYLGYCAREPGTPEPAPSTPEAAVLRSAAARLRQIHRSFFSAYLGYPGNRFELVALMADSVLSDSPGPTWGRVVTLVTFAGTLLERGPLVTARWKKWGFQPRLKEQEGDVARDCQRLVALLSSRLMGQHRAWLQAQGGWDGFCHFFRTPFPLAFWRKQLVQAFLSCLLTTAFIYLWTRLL
As for `COc1ccc(Br)cc1/C=N\n1c(C)nnc1C`, the displacement is -0.6%.
Next, `O=c1/c(=C/c2ccc(C(F)(F)F)cc2)sc2nc3ccccc3n12`: 2%.
On to `Cn1cccc1CN1CCN(C2CCCCC2)CC1`, for which the displacement came to 10.8%.
With `COc1cc(/C=N/n2cnnc2)ccc1OC(=O)c1ccco1`, the displacement was -3.2%.
As for `CCc1ccc(S(=O)(=O)Nc2cc(Br)c(O)c3ccccc23)cc1`, the figure is 20.2%; as for `CC(=O)c1ccc(NC(=O)CCCC(=O)OCC(F)(F)C(F)F)cc1`, -5.8%.
For `Cc1cccc2c1N(C(=O)c1ccco1)C(C)(C)c1ssc(=S)c1-2`, the displacement was -8.5%.
Take `O=C(COc1ccc(Cl)cc1)Nc1ccc2c(c1)Cc1ccccc1-2`: the displacement turned out to be 5.4%.
For `COC(=O)c1c(-c2ccc(OC)c(OC)c2)csc1NC(=O)c1ccc(OCC(C)C)cc1`, the displacement came to 0%.
For the compound `N#CC1=C(N)SC(N)=C(C#N)C1c1ccc(Cl)cc1`, the displacement is -10.9%.
Next, `CCCCOC(=O)c1ccc(NC(=O)c2cc3ccccc3o2)cc1`: -6.2%; `Cc1ccc(Cl)cc1NC(=O)CCC1CCCC1`: -11.6%; `O=c1nc(/C=C/c2ccc(N3CCOCC3)cc2)cc(C(F)(F)F)[nH]1`: -61.9%.
Next, `O=C(c1cc2nc(-c3ccc([N+](=O)[O-])cc3)cc(C(F)(F)F)n2n1)N1CCOCC1`: 14.4%; `COc1cccc(OCCOCCOc2cccc(OC)c2)c1`: 13.9%.
With `Cc1ccc(S(=O)(=O)Nc2ccc(O)cc2)c(C)c1`, the displacement was -6.1%.
As for `CC1=C(C(=O)Nc2cccc(C)c2)C(c2ccc(O)cc2)NC(=O)N1` (stereo not drawn), the figure is 3.3%.
As for `CC1CCCC(C)N1C(=O)CCN1C(=O)c2ccccc2C1=O` (stereo not drawn), the figure is 7.8%; as for `COc1ccc(OC)c(C2C(C(=O)/C=C/c3ccccc3)=C(O)C(=O)N2CCCCCC(=O)O)c1` (stereo not drawn), -11.1%; as for `Cc1nnc(N/N=C/c2ccc([N+](=O)[O-])cc2)[nH]c1=O`, -3.4%.
As for `Cc1ccc(OCC(=O)N/N=C\c2cccc(OC(=O)c3cccs3)c2)cc1`, the figure is 1.5%; as for `COc1ccc(N=C2NC(=O)/C(=C/c3ccc(I)o3)S2)cc1`, -3%; as for `CCc1ccc(C2CC(=O)NC(SCc3ccccc3)=C2C#N)cc1` (stereo not drawn), -17.3%.
Regarding `CCOC(=O)c1c(NC(=O)C(OC(C)=O)c2ccccc2)sc2c1CCC2` (stereo not drawn), the displacement stood at 10.1%.
As for `COc1c(I)cc(I)cc1/C=N/NC(=O)C1COc2ccccc2O1` (stereo not drawn), the figure is -10.9%.
Next, `O=C(NCc1ccccc1)c1cccc(F)c1`: -12.3%.
Take `O=C(O)/C=C/C(=O)NNc1ccccc1[N+](=O)[O-]`: the displacement is -4.8%.
For `Cc1cc(=O)oc2c(I)c(OCc3ccccc3)ccc12`, the displacement was determined as 8.7%.
For `c1ccc(C(c2ccccc2)c2nnc(C(c3ccccc3)c3ccccc3)o2)cc1`, the displacement was -2.3%.
Next, `CCC(C(=O)Nc1cccc(C)c1)c1ccccc1` (stereo not drawn): 13.2%; `CN(C)c1ccc(/C=C2\SC(N3CCCC3)=NC2=O)cc1`: -20%.
Next, `C=CCOc1ccc(/C=C2\C(=O)NC(=O)N(c3ccc(F)cc3)C2=O)cc1OC`: -6%; `C/C(=N\NC(=O)C(O)c1ccccc1)c1ccc2c(c1)CCCC2` (stereo not drawn): 1.3%.
Next, `O=C(NCc1ccccn1)C(=O)N/N=C/c1ccc(Br)cc1`: -0.3%.
As to `COc1cccc(/C=C/C(=O)c2ccc(Cl)cc2)c1`, the displacement was -2.9%.
Regarding `Cc1ccc(Cl)cc1NC(=O)CN(c1cccc(Cl)c1)S(C)(=O)=O`, the displacement is -3%.
`CCOc1ccc(-n2c(C)c(C(C)=O)c(C(C)=O)c2C)cc1`: the displacement is 0.8%.
In the case of `C(=N\Nc1nn[nH]n1)/c1ccc(OCc2ccccc2)cc1`, the displacement is -5.9%.
Next, `O=C(NC1CCCCC1)C1CC(=O)N(c2ccc(Br)cc2)C1` (stereo not drawn): -7.6%; `Cc1ccc(N=Cc2ccccc2O)cc1F`: -8.4%; `O=C(O)CC1S/C(=N\N=C\c2ccc(N3CCOCC3)cc2)NC1=O` (stereo not drawn): -4.3%.
Next, `CCCCNC(=O)c1cc2ncc(Br)cn2n1`: 20%.
Next, `COc1cc(C(=O)Nc2ccc(C(N)=O)cc2)c([N+](=O)[O-])cc1OC`: 6.6%; `CC(NC(=O)c1cccs1)c1ccccc1` (stereo not drawn): 8.2%.
Consider `O=C(NCCN1CCOCC1)Nc1ccc(Cl)cc1`, for which the displacement was found to be 9%.
As for `Cc1ccc(Cl)cc1N1C(=O)C2C(c3ccc(Cl)cc3)OC3(C(=O)c4ccccc4C3=O)C2C1=O` (stereo not drawn), the figure is -0.2%.
Next, `CC1(C)CC(=O)C2=C(C1)Nc1[nH]c(=O)[nH]c(=O)c1C2c1ccc(O)cc1` (stereo not drawn): -1.5%.
Next, `C=CCc1c(C)nc2cc(-c3cccc(C)c3)[nH]n2c1=O`: 10.4%; `CC(=O)C(C(C)=O)c1cc(NS(=O)(=O)c2ccc(C)cc2)c2ccccc2c1O`: 3.6%; `O=C(O)c1ccc(NC2=NS(=O)(=O)c3ccccc32)cc1`: -8%.
Take `O=C(O)COc1ccccc1/C=N/NC(=O)Cn1nnc(-c2ccccc2Cl)n1`: the displacement was -1.4%.
Turning to `Cc1cccn2c(=O)c(/C=C3\SC(=S)NC3=O)c(NCCCn3ccnc3)nc12`, the displacement was found to be 2.5%.
As for `O=C(O)C1CCCCC1C(=O)Nc1cccc([N+](=O)[O-])c1` (stereo not drawn), the figure is -8.5%.
Next, `Cn1cc(/C=C/c2nc3ccccc3c(=O)n2-c2cccc([N+](=O)[O-])c2)c2ccccc21`: -10.1%; `CC1(C)CC(NS(=O)(=O)c2ccc(Cl)cc2)CC(C)(C)N1`: 12.7%.
Next, `COc1ccc(/C=N/N=C(N)N)cc1`: -1.8%; `CC1CCN(CCC(=O)N/N=C/c2c[nH]c3ccccc23)CC1`: -2.4%.
Take `O=C(CN(c1cccc(Cl)c1)S(=O)(=O)c1ccccc1)NCc1ccncc1`: the displacement stood at 1%.
Next, `O=C(O)c1cc(Br)ccc1NC(=O)C1CCCCC1`: 2.6%; `Cc1ccc(CNC(=O)C(=O)NCc2cccnc2)cc1`: 6.6%.
Consider `CCN(C(=O)CN1C(=O)c2ccccc2C1=O)c1ccccc1C`, for which the displacement stood at 9.1%.
For `CCOC(=O)C1=C(C)NC2=C(C(=O)CCC2)C1c1ccc(N(CC)CC)cc1` (stereo not drawn), the displacement was -2.1%.
Turning to `CC1C(c2ccccc2)=[N+]([O-])C(C)(c2cccs2)N1O` (stereo not drawn), the displacement was determined as 9.1%.
Next, `CCOc1cc(/C=N/NC(=O)C(=O)Nc2cccc(OC)c2)ccc1O`: 9.8%.
As for `O=C(CCCCC(=O)NN=Cc1cc(Br)ccc1O)NN=Cc1cc(Br)ccc1O`, the displacement came to 9.4%.
With `CCn1cc(/C=C2\C(=O)NC(=O)N(c3ccc(Cl)cc3)C2=O)c2ccccc21`, the displacement was -18.6%.
Next, `Cn1cnnc1SCc1ccccc1`: 18.6%; `COc1cc(C(=O)Nc2cccc(S(N)(=O)=O)c2)ccc1OCc1ccc(Cl)cc1`: -7.2%; `CCOc1cc(C=C2C(=O)NC(=S)N(CC)C2=O)ccc1O`: 7.3%.
Next, `NC(=O)c1ccc(CN2CCN(Cc3ccccc3)CC2)cc1`: 5.9%.
As for `Cc1cccc(N2C(=O)/C(=C/c3ccc(C(C)C)cc3)SC2=S)c1`, the figure is -7.3%; as for `O=C(CSc1nc2ccccc2o1)c1ccc(Cl)cc1Cl`, -0.9%; as for `C=COCn1c2ccc(Cl)cc2c2cc(Cl)ccc21`, -9.3%.
Regarding `O=[N+]([O-])c1ccccc1S(=O)(=O)NCCSc1ccccn1`, the displacement is -4.4%.
Consider `CN1C(=O)/C(=C\c2cn(Cc3ccccc3)c3ccccc23)SC1=S`, for which the displacement was determined as 8.3%.
Next, `Cc1ccc(N2C(=O)C3C(C2=O)C2C=CC3C23CC3)cc1Br` (stereo not drawn): 6.6%; `CCOC(=O)C(CCCOc1ccc(C)cc1C)C(=O)OCC`: -7.3%.
Next, `COc1cc(/C=C2\SC(=N)N(c3ccc(F)cc3)C2=O)ccc1O`: -13.9%; `COc1ccc(CCNC(=O)COc2cccc(C)c2)cc1`: -8.1%; `COc1ccc2ccccc2c1C=Nc1ccc(S(N)(=O)=O)cc1`: -4.7%.
With `CC(C)(C)NCCN1CCn2c1nc1ccccc12`, the displacement was -2.7%.
As for `CC(C)N1C(C)CC(O)N1C(=O)CC#N` (stereo not drawn), the figure is -8.4%; as for `Oc1c(C=NCc2ccncc2)sc2ccccc12`, -22.4%; as for `CN(C)c1ccnc2sc(C(=O)c3ccccc3)c(N)c12`, 4.7%.
Next, `S=C(c1ccc(-c2ccc(Cl)c(Cl)c2)o1)N1CCN(c2ccccc2)CC1`: 7.7%; `CC(=O)c1c(C)nc(-c2ccccc2)nc1NC(=O)Cc1ccccc1`: -17.7%.
Next, `Cc1nc(N/N=C/c2ccc(N(C)C)cc2)cc(-c2ccccc2)n1`: -14.2%.
Take `O=C(O)COc1ccc(N2C(=O)c3ccc([N+](=O)[O-])cc3C2=O)cc1`: the displacement was -4.1%.
In the case of `CN(CC(=O)N1c2ccc(Cl)cc2NC(=O)c2ccccc21)CC(O)c1ccccc1` (stereo not drawn), the displacement was -3.3%.
On to `O=C(C1CCCCC1)N1CCN=C1c1ccccc1`, for which the displacement was -1%.
Consider `COc1cc(OC)c(OC)cc1C=C1C(=O)N(C)C(=O)N(C)C1=O`, for which the displacement was 15.5%.
Next, `Cc1cccc(NC(=O)/C=C/c2ccc3c(c2)OCO3)n1`: 1.4%.
As for `COc1ccc(C2C3=C(CC(C)(C)CC3=O)Nc3nc(SC)[nH]c(=O)c32)cc1` (stereo not drawn), the figure is -7.7%; as for `Cc1[nH]c2c(Cl)cccc2c(=O)c1CN1CCCC1`, 7.3%.
As for `N#Cc1cc2c(nc1SCC(=O)Nc1ccc(S(N)(=O)=O)cc1)CCCCC2`, the figure is -1.5%; as for `CCCOC(=O)c1c(NC(=O)c2cnccn2)sc2c1CCC(C)C2` (stereo not drawn), -7.5%.
As for `O=C(NC(=S)Nc1ccccc1)c1ccc(Cl)cc1`, the displacement is -8%.
For `CC1CN(c2c(Cl)cccc2[N+](=O)[O-])CCN1S(C)(=O)=O` (stereo not drawn), the displacement is 14.6%.
Consider `COc1ccc(C2(CNC(=O)C(c3ccccc3)c3ccccc3)CCOCC2)cc1OC`, for which the displacement was -7.1%.
Regarding `Cc1ccc2nc(SCCN3CCOCC3)[nH]c2c1`, the displacement was -1.3%.
Next, `COc1ccc(N(CC(=O)Nc2ccc(C(C)C)cc2)S(=O)(=O)c2ccccc2)cc1`: 11.7%.
As for `Cc1ccc(C)c(OCCCCN2CCOCC2)c1C`, the figure is 3.2%; as for `COc1ccc(/C(N)=N/OC(=O)c2ccc(F)cc2)cc1`, 9.6%.
For the compound `O=C(CN(CCc1ccccc1)S(=O)(=O)c1ccccc1)Nc1ccc(Br)cc1`, the displacement was -2.3%.
As for `Cc1cc(Cl)ccc1OCC(=O)NNC(=O)c1cccs1`, the figure is -7.3%.
For `COc1cc(/C=N/NS(=O)(=O)c2ccc3ccccc3c2)ccc1OCCN1CCOCC1`, the displacement was -2%.
For `Cc1ccc(C(C)(C)C)c(OCC(=O)Nc2ccc(C(=O)O)cc2)c1`, the displacement was -4%.
Next, `CCOC(=O)c1ccc[n+](CC(=O)c2cc3ccccc3oc2=O)c1`: 8.8%; `Cc1n[nH]c(C)c1Sc1ccccc1N=Cc1ccc(C(=O)O)cc1`: 7.8%; `COc1cccc(/C=C2\SC(=Nc3cccc(Cl)c3Cl)NC2=O)c1`: 13%.
Next, `CCCC(C)NS(=O)(=O)c1ccc(OC)cc1` (stereo not drawn): 1.1%.
As for `Cc1sc(NC(=O)/C=C/c2cccc(Cl)c2)nc1-c1ccccc1`, the figure is -3%; as for `Cc1ccc(Cl)cc1NC(=O)C(=O)NCc1cccnc1`, -7.4%.
